The results in this text go back to ChEMBL document CHEMBL4888484, “Replenishing the malaria drug discovery pipeline: Screening and hit evaluation of the MMV Hit Generation Library 1 (HGL1) against asexual blood stage Plasmodium falciparum ,using a nano luciferase reporter read-out” (2022).

The subject of this assay is Plasmodium falciparum. As to the kind of experiment: Primary screen in NF54 nanoGlo assay, in single point, at 2uM, 72h; a lower Z score goes with more inhibition. The class given is functional, Erythrocyte. As to conditions: timepoint 72 hour.

Where “and” joins values, the source holds several entries; their conditions need not be identical. Equal entries are not always repeated. Hit rate of the full screen: of about 150,000 compounds, about 540 (0.36%) showed an effect of 50% or more. This is one part of the list.

Turning to `COCCn1c(C(=O)N[C@H](c2ccccc2)c2nc3ccccc3[nH]2)cc2ccccc21`, under “2 µM”, the “% Inhibition” value is -18% and -10%; the Z score was 2.27 and 1.6.
Regarding `Cc1ccc(C)c(N(C)C(=O)CCc2nc(C3=CCN(C)CC3)no2)c1`, the “% Inhibition” value was -16% and the Z score turned out to be 1.99.
The corresponding values for `CCn1c(=O)cc(Cl)n(CC(=O)N2CCC3(CC2)OCCO3)c1=O` are -5% and 1.
For `CC(C)(C)CC(C)(C)c1ccc(OC(=O)NC(C)(C(F)(F)F)C(F)(F)F)cc1`, the “% Inhibition” value is reported as -12% and the Z score is recorded as 1.24.
Consider `ON1C2CCCCC2N(O)C1c1ccco1` (stereo not drawn), for which the “% Inhibition” value amounted to 13% and the Z score is -1.74.
The corresponding values for `CCCNC(=O)OC[C@H]1C[C@@H]2CCN1C[C@@H]2c1cc(-c2ccc(N(C)C)cc2)nc(C)n1` are -13% and 1.66.
The like results for `O=C(Cc1cccc2ccccc12)Nc1ccc(-c2noc(=O)[nH]2)cc1` were, in that order, -3% and 0.33.
The like results for `COc1ccc(C(C)NC(C)Cn2cncn2)c(OC)c1` (stereo not drawn) were, in that order, -4% and 0.48.
Turning to `Cc1oc(-c2ccccc2)nc1CN1C(=O)CN=C(c2ccc(F)cc2)c2c1sc(C)c2C`, the “% Inhibition” value is given as -7% and the Z score came to 0.98.
Regarding `CCc1cc(C(=O)N2C[C@H](c3ccccc3)[C@@H]3[C@H]2C2CCN3CC2)ccn1`, the “% Inhibition” value is listed as -2% and the Z score is reported as 0.45.
The corresponding values for `CO[C@]12ONC(c3ccccc3O)C1N1CCC2CC1` (stereo partly drawn) are -16% and 2.03.
The like results for `Cc1c(C)[n+]([O-])c([C@@H](c2ccc(F)c(F)c2)C2C(=O)NC(=O)NC2=O)n1CCO` were, in that order, -10% and 1.3.
The corresponding values for `O=C(c1ccn2c(-c3ccccc3)nnc2c1)N1CCC2(CC1)OCCO2` are -6% and 0.65.
In the case of `O=C1CCCN1CC(=O)N(CCC1=CCCCC1)Cc1ccc(Cl)cc1`, the “% Inhibition” value was -21% and the Z score is listed as 2.72.
The like results for `Nc1nnc(CCN2CCOCC2)s1` were, in that order, 0% and 0.04.
The like results for `COC(=O)C1(c2ccccc2)CCN(C(=O)[C@@H]2COCCO2)CC1` were, in that order, -10% and 1.78.
Regarding `CCc1ccc(CCN(C)Cc2conc2CC)cc1`, the “% Inhibition” value was -9% and the Z score was 1.75.
The corresponding values for `Cc1ccc2c(c1)CCN[C@H]2C(C)(C)C` are -7% and 0.87.
The corresponding values for `CC1CC(NCC2CCCCC2OCC(F)(F)F)CC(C)O1` (stereo not drawn) are -3% and 0.37.
The corresponding values for `CCn1nc(C)cc1C(=O)N1C[C@H](c2ccccc2)[C@@H]2[C@H]1C1CCN2CC1` are 2% and -0.31.
For `FC(F)(F)c1ccc(-c2cccc3c2CCNC3)nc1`, the “% Inhibition” value is on record as -5% and the Z score is given as 0.79.
Regarding `CC(C)c1noc(N2CCC3CCC(C2)N3C)n1` (stereo not drawn), the “% Inhibition” value is listed as -14% and the Z score is 1.95.
The like results for `CCOCCC(=O)N1C[C@@H]2CC[C@H]1CN(Cc1ccccn1)C2` were, in that order, -3% and 0.6.
Take `CC1CCN(CN2C(=O)N[C@]3(CN4CCC3CC4)C2=O)CC1`: the “% Inhibition” value is reported as -8% and the Z score amounted to 1.08.
The corresponding values for `CN(CC#CCN(C)C1CCOC1)C1CCOC1` (stereo not drawn) are 4% and -0.52.
On to `CC12CN(CC#N)CC(C)(CN(CC#N)C1)C2=O`, for which the “% Inhibition” value was -3% and the Z score was found to be 0.34.
On to `CN1CCN(CCO[C@@H](c2cccc(Cl)c2)c2ccccc2Cl)CC1`, for which the “% Inhibition” value amounted to 35% and the Z score is given as -4.48.
The like results for `COCCS(=O)(=O)Nc1ccc(C#N)c(Cl)c1` were, in that order, -12% and 1.57.
The corresponding values for `CC(C)=CCN1C[C@@H]2CC[C@H]1CN(C(=O)Cc1sc(C)nc1C)C2` are 2% and -0.34.
The corresponding values for `CN1C[C@@H]2CC[C@H](CC1=O)N2Cc1cnc(-c2ccco2)nc1` are -12% and 1.18.
Regarding `CC1CCC(C(C)C)C(OC(=O)c2ccccc2N)C1` (stereo not drawn) [MERADIMATE], the “% Inhibition” value is 0% and the Z score was determined as 0.01.
The corresponding values for `Cc1nc2c(c(N[C@@H]3[C@@H]4CCO[C@@H]4[C@H]3N3CCCC3)n1)CCC2` are 0% and 0.01.
The like results for `c1ccc2c(CNCCc3ccc4c(c3)OCO4)c[nH]c2c1` were, in that order, -9% and 1.75.
The like results for `CC(O)C(O)CN1CCCN(C(=O)Oc2ccccc2)CC1` (stereo not drawn) were, in that order, -15% and 2.81.
As to `N#CC1(NS(=O)(=O)c2ccc(S(=O)(=O)F)cc2)CCC1`, the “% Inhibition” value is on record as 4% and the Z score is on record as -0.49.
As for `CCOc1ccc(C[C@H]2C(=O)NC(=O)N(CCc3ccc(OC)c(OC)c3)C2=O)cc1`, the “% Inhibition” value is recorded as 30% and the Z score is given as -3.4.
The corresponding values for `COCCOC[C@H]1CCN(CC(F)F)C1` are -9% and 1.35.
Consider `N#Cc1ccccc1COc1cccc(C(=O)N2CCC3(CC2)OCCO3)c1`, for which the “% Inhibition” value was 3% and the Z score is listed as -0.47.
The corresponding values for `CC(NC(=O)C1CC2CCCCN2C1)C(C)(C)C` (stereo not drawn) are -9% and 1.26.
The corresponding values for `O=C(c1ccc2nnnn2c1)N1C[C@H](c2ccccc2)[C@@H]2[C@H]1C1CCN2CC1` are 0% and -0.02.
The corresponding values for `CCN1CCC[C@H](NC(C2CCC2)C2CCC2)C1` are 35% and -1.11.
Turning to `COc1ccc(CN2C[C@@H]3C[C@H](C2)c2c(-c4ccccc4F)ccc(=O)n2C3)cc1`, the “% Inhibition” value is listed as -6% and the Z score is given as 0.98.
Consider `Cc1cc(CC(=O)N2CC(N3CCCC[C@@H]3C)C2)on1`, for which the “% Inhibition” value is recorded as -4% and the Z score was determined as 0.78.
The like results for `FC1(F)CCC12CN(Cc1cccs1)C2` were, in that order, -4% and 0.45.
The corresponding values for `CC(C)Cn1cc(CN2CC(C)CC2c2cccnc2)cn1` (stereo not drawn) are -12% and 1.55.
In the case of `CC1(CNC2CCCC(C(F)(F)F)C2)OCCO1` (stereo not drawn), the “% Inhibition” value is recorded as -3% and the Z score worked out at 0.28.
For the compound `CCOCCCNC(=O)c1c(COc2ccc(C)cc2)n(CCN2CCOCC2)c(C)cc1=O`, the “% Inhibition” value is 3% and the Z score was -0.28.
The corresponding values for `Cc1ccccc1CC(=O)N1CCN(C)[C@@]2(CCNC(=O)CC2)C1` are -13% and 2.28.
The corresponding values for `COc1ccc(-c2nc(CN3C(=O)CN=C(c4ccccc4Cl)c4cc(Cl)ccc43)c(C)o2)cc1OC` are -2% and 0.35.
As to `Nc1ncccc1CN1CCOC2(CCCC2)C1`, the “% Inhibition” value is -8% and the Z score was determined as 0.73.
The like results for `CCc1nncn1CCNC(=O)N[C@@H](C)Cc1cccc(F)c1` were, in that order, -3% and 0.38.
The corresponding values for `O=C(NC[C@H]1CN2CCN1CC2)c1csc(Cl)c1` are -6% and 0.93.
The like results for `CN1C[C@@H]2CCC[C@H]1CN(c1cc(C(N)=O)ccn1)C2` were, in that order, -15% and 1.66.
On to `C[C@H](NCCc1ccccc1F)C1CC1`, for which the “% Inhibition” value was -8% and the Z score was 1.01.
